Source: patent publication US12678512B2, “Anti-EGFR antibody-drug conjugate with a cyclic dinucleotide derivative” (DAIICHI SANKYO COMPANY, LIMITED, priority 2020, dated 2026)

System: CT26.WT-hEGFR cells subcutaneously transplanted in BALB/c mouse
Assay: Anti-tumor test (2)
Type: in vivo
Details: 1.5 mg/kg into the tail vein once on Day 12, FIG. 15
Description: CT26.WT (CRL2638), a mouse colon cancer cell line purchased from American Type Culture Collection, was transduced with the human EGFR gene (NP_005219.2) to establish CT26.WT-hEGFR cells. Specifically, a pLVSIN lentiviral vector (Takara Bio), in which the human EGFR gene was inserted, was constructed. Next, Lenti-X293T cell line (Takara Bio) was transfected with the vector using a Lentiviral High Titer Packaging Mix (Takara Bio). Then, the supernatant was collected, and the CT26.WT was infected therewith. The cells were maintained in medium supplemented with 10 μg/mL puromycin (Thermo Fisher Scientific).
CT26.WT-hEGFR cells were suspended in saline. Ne×t, 3×10^6 cells were transplanted subcutaneously into the right axillary region of each BALB/c mouse (Day 0), and random grouping was conducted after 12 days. […] In addition, the vehicle group was provided in which acetate buffer was administered. The number of mice in each group was 8.

B1: anti-EGFR antibody 2: IgG1 isotype with LALA mutation, produced with reference to WO2002/092771; light chain SEQ ID NO: 11, heavy chain SEQ ID NO: 12 (antibody, listed as Homo sapiens)
heavy: DVQLQESGPSLVKPSQSLSLTCTVTGYSITSDFAWNWIRQFPGNKLEWMGYISYSGNTRYNPSLKSRISITRDTSKNQFFLQLNSVTIEDTATYYCVTAGRGFPYWGQGTLVTVSAASTKGPSVFPLAPSSKSTSGGTAALGCLVKDYFPEPVTVSWNSGALTSGVHTFPAVLQSSGLYSLSSVVTVPSSSLGTQTYICNVNHKPSNTKVDKRV[omitted - human IgG1 Fc with changes]
light: DILMTQSPSSMSVSLGDTVSITCHSSQDINSNIGWLQQRPGKSFKGLIYHGTNLDDEVPSRFSGSGSGADYSLTISSLESEDFADYYCVQYAQFPWTFGGGTKLEIKRTVAAPSVFIFPPSDEQLKSGTASVVCLLNNFYPREAKVQWKVDNALQSGNSQESVTEQDSKDSTYSLSSTLTLSKADYEKHKVYACEVTHQGLSSPVTKSFNRGEC
tumor growth (tumor volume): tumor growth was not inhibited
